Reference: article PMC10468125 (Science Advances, 2023)

Target: the molecule itself
Test: cryo-EM structure

B1: Connexin 32 (Cx32) W3S mutant (natural protein)
chain: not shown
binding result: binds

B2: Connexin 32 (Cx32) R22G mutant (natural protein)
chain: not shown
binding result: binds
